Two compounds from patent US20250382269A1 (CFD Research Corporation, priority 2019, published 2025) can be followed below.

Where two headings read alike, the source gives them in different places.

This assay has as its system B. subtilis cells.

In the case of `Brc1ccc2[nH]cc(Sc3ccccc3Br)c2c1` [Compound 174I, 5-bromo-3-((2-bromophenyl)thio)-1H-indole], the “cell wall disruption (FM 4-64 dye aggregation)” value was “aggregation and cell wall disruption”.

Take `CC[C@H](C)[C@H](NC(=O)CN)C(=O)NCC(=O)N[C@@H](C)C(=O)N[C@H](C(=O)N[C@@H](CC(C)C)C(=O)N[C@@H](CCCCN)C(=O)N[C@H](C(=O)N[C@@H](CC(C)C)C(=O)N[C@H](C(=O)N[C@H](C(=O)NCC(=O)N[C@@H](CC(C)C)C(=O)N1CCC[C@H]1C(=O)N[C@@H](C)C(=O)N[C@@H](CC(C)C)C(=O)N[C@H](C(=O)N[C@@H](CO)C(=O)N[C@@H](Cc1c[nH]c2ccccc12)C(=O)N[C@H](C(=O)N[C@@H](CCCCN)C(=O)N[C@@H](CCCNC(=N)N)C(=O)N[C@@H](CCCCN)C(=O)N[C@@H](CCCNC(=N)N)C(=O)N[C@@H](CCC(N)=O)C(=O)N[C@@H](CCC(N)=O)C(N)=O)[C@@H](C)CC)[C@@H](C)CC)[C@@H](C)O)[C@@H](C)O)C(C)C)C(C)C` [melittin, reference compound]: the “cell wall disruption (FM 4-64 dye aggregation)” value (B. subtilis cells, FIG. 1C) is “aggregation and cell wall disruption”.
